Test results reported in PMC6919601, “Identification of Plasmodium dipeptidyl aminopeptidase allosteric inhibitors by high throughput screening” (PLoS ONE, 2019).
The whole screen tested about 110,000 compounds, of which about 230 (0.21%) showed an effect of 50% or more. The list shows a part of the results.

Target: DPAP1 (Plasmodium falciparum, UniProt Q8IIJ9)
Assay: primary screen, percent inhibition; read by cleavage of a fluorogenic dipeptide substrate; higher = more effect of the substance
Set-up: species or system P. falciparum D10 trophozoite lysates; single well
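Note: 30 min substrate incubation versus DMSO and 10 µM JCP410 controls.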

Chain of DPAP1 (Q8IIJ9 whole entry, looked up): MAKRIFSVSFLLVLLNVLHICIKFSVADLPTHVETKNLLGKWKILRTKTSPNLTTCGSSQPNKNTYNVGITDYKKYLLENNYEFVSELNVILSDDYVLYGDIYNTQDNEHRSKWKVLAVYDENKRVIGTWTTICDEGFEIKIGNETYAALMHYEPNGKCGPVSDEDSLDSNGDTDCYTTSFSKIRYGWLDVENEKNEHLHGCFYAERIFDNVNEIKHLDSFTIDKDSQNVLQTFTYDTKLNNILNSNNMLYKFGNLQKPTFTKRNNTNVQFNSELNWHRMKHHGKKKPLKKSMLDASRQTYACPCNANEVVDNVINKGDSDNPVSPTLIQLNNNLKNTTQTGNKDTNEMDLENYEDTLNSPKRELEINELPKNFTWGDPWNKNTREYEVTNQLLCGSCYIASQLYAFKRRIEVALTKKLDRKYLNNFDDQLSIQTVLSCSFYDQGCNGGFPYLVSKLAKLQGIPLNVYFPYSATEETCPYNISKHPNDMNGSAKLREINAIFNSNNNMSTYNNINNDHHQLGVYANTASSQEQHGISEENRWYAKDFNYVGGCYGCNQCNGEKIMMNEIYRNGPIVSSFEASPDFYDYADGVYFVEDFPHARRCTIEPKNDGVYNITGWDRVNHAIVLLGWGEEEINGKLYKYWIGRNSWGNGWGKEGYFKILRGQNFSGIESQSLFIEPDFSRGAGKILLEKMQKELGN

In order of rising “% Inhibition @ 10 uM” value:
1. Cc1ccc(N2CCN(CN3C(=O)S/C(=C/c4ccc(OCCO)cc4)C3=O)CC2)cc1  -15.2%
2. COc1cccc(OCC(O)CN2CCN(c3ccccc3F)CC2)c1 (stereo not shown)  -11.6%
3. O=C(c1ccccc1Cl)n1nc(-c2ccccc2)nc1NCc1ccco1  -10.8%
4. Cc1cccc(/C=C2/SC(=O)N(Cc3ccccc3)C2=O)n1  -7.83%
5. COc1cc(C(=O)NCC(C)NC(=O)c2cc(OC)c(OC)c(OC)c2)cc(OC)c1OC (stereo not shown)  -7.02%
6. COc1ccc(CCNC(=O)CSc2nc(O)c3cnn(-c4ccc(F)cc4)c3n2)cc1OC  -6.49%
7. CC(=O)N(CCCN(C)C)c1nc2c(F)cc(F)cc2s1  -6.33%
8. Cc1ccc(-n2nc3c(=O)n(CC(=O)NC4CCCc5ccccc54)nc(C)c3c2C)cc1 (stereo not shown)  -6.16%
9. CC(NC(=O)/C=C/c1ccc(Cl)cc1)c1ccccc1 (stereo not shown)  -5.84%
10. O=C(C1=CCN(S(=O)(=O)c2ccccc2)CC1)N1CCN(c2ccccn2)CC1  -5.19%
11. CC1(C)Cc2ccccc2C(CC(=O)N2CCCCCC2)=N1  -5.11%
12. COc1ccc(NC(=O)OCC(F)(F)C(F)F)cc1Cl  -4.87%
13. Cc1cc2oc3c(c(=O)c2cc1C)C(c1ccc(C(C)C)cc1)N(CCCN(C)C)C3=O (stereo not shown)  -4.78%
14. O=c1c(-c2ccc(Cl)cc2)coc2c(CN3CCOCC3)c(O)ccc12  -4.39%
15. COc1ccc(CCNC(=O)CO/N=C/c2cc3c(cc2Br)OCO3)cc1OC  -4.35%
16. O=C(Nc1nc(-c2ccccc2)cs1)Nc1ccc(Cl)cc1Cl  -4.35%
17. O=C(NCc1ccccn1)c1ccc(CNS(=O)(=O)c2cccc(C(F)(F)F)c2)cc1  -4.15%
18. CC(=O)Nc1cccc(N2C(=O)c3cc(Cl)c(Cl)cc3C2=O)c1  -3.78%
19. Cc1c(CNC(C)C23CC4CC(CC(C4)C2)C3)c(C(=O)O)c(C)n1Cc1ccccc1 (stereo not shown)  -3.67%
20. O=[N+]([O-])c1cccc(-c2ncnn2-c2ccccc2)c1  -3.6%
21. O=c1c2c3c(sc2nc2n1CCCCC2)CCC3  -3.44%
22. CCCCNc1c(Cl)cnn(-c2ccccc2)c1=O  -3.44%
23. CC(CCc1ccccc1)NC(=O)c1cc2sc(Cl)cc2n1C (stereo not shown)  -3.08%
24. CCCCOc1ccc(-c2cc(C(=O)O)c3ccccc3n2)cc1  -3.06%
25. C#CCOC(=O)/C(=C/C=C/c1ccccc1)NC(=O)c1ccccc1  -2.87%
26. CCC(CCCC1CCNC(=O)N1)CC(=O)O (stereo not shown)  -2.7%
27. Cc1nnc(N2CCN(C(=O)NC(C)C)CC2)c2nn(-c3ccc(Cl)cc3)c(C)c12  -2.29%
28. COc1ccc(C(=O)NC2CC(C)(C)Cc3occc32)cc1 (stereo not shown)  -2.09%
29. COc1ccc(/C=C/C(=O)NCCc2ccccc2)cc1  -2.03%
30. N#CCNC(=O)C(Cc1cccc(-c2ccccc2)c1)CS(=O)(=O)Cc1ccccc1OC(F)F (stereo not shown)  -1.83%
31. CCc1cc2c(cc3c(=O)n(CC(=O)NC(C)c4ccc5c(c4)OCCO5)nc(CC)n32)s1 (stereo not shown)  -1.7%
32. CC1CCN(S(=O)(=O)c2ccc3c(ccn3CCC(=O)NC(C)c3ccccc3)c2)CC1 (stereo not shown)  -1.63%
33. CCCN1CCC(NCCc2ccc(Cl)cc2)CC1  -1.56%
34. COc1ccc(/C=C/C(=O)Nc2nc(-c3ccc(C)cc3)cs2)cc1OC  -1.52%
35. c1ccc(CCN2CCC(NC3CCCCCC3)CC2)cc1  -1.41%
36. CCOc1ccc2nc(C34CC5CC(CC(C5)C3)C4)ccc2c1  -1.32%
37. NC(=O)CS(=O)(=O)c1nc2ccccc2n1Cc1cccc(F)c1  -1.11%
38. COc1ccc2c(CNCc3ccco3)c(C(=O)O)n(Cc3ccccc3C)c2c1  -1.09%
39. Clc1ccc(CCNc2nn3nnnc3c3ccccc23)cc1  -0.984%
40. CCCCN(c1ncnc2onc(-c3ccc(F)cc3)c12)C1CCN(C(C)=O)CC1  -0.705%
41. N#CCNC(=O)[C@H](CS(=O)(=O)Cc1ccccc1)NC(=O)c1cnc2ccccc2c1  -0.413%
42. COc1ccc(CNC(=O)NC2(C(F)(F)F)Oc3ccc(Cl)cc3O2)cc1 (stereo not shown)  -0.363%
43. COc1ccc(-c2nc3cc(C)ccc3o2)cc1N  -0.294%
44. N#CCNC(=O)[C@H](CS(=O)(=O)Cc1ccccc1)NC(=O)c1ccc(-c2ccccc2)cc1  -0.214%
45. COc1ccc(C2=NN(/C(C)=C/C(C)=O)C(c3cccc([N+](=O)[O-])c3)C2)cc1 (stereo not shown)  -0.128%
46. CO/C(O)=C1\C(C)=NC2=C(C(=O)CC(C)(C)C2)C1c1cccc(Cl)c1 (stereo not shown)  -0.0953%
47. O=C(c1noc2c1COc1ccccc1-2)N1CCC2(CC1)OCCO2  0.00665%
48. O=C(C1CCC(c2ccc(-c3ccccc3)cc2)CC1)N1CCOCC1 (stereo not shown)  0.177%
49. O=C(c1cc2c(s1)-c1ccccc1OC2)N1CCC(N2CCCCC2)CC1  0.291%
50. Cc1ccc(C)c(S(=O)(=O)c2nnn3c2nc(NCc2ccco2)c2sccc23)c1  0.304%
51. COc1ccccc1/N=C/C1=C(O)CC(c2ccccc2)CC1=O (stereo not shown)  0.343%
52. Cc1cc(OCc2ccc(C(=O)Nc3cccnc3Cl)o2)ccc1Cl  0.413%
53. COc1ccccc1CNC(=O)c1ccccc1C  0.467%
54. CCCCC(=O)NC(=O)c1ccccc1O  0.526%
55. COc1ccc(CN(C(=O)c2ccc(Cl)cc2)C2CCS(=O)(=O)C2)cc1 (stereo not shown)  0.561%
56. COc1ccc(-c2noc(N3CCCC(C(=O)Nc4cccnc4Cl)C3)n2)cc1 (stereo not shown)  0.6%
57. COC(CNC1CCCc2c1[nH]c1ccc(C)cc21)OC (stereo not shown)  0.708%
58. O=C(CCn1cccc1)NC1CCCc2ccccc21 (stereo not shown)  0.747%
59. Cc1cccc(OCC(=O)Nc2ccc(F)cc2)c1C  0.795%
60. CCCC1(CCC)C(=O)N=C(NCc2ccccc2)NC1=O  1.02%
61. Cc1cc(NS(=O)(=O)c2ccc(NC(=O)C3C4C=CC(C4)C3C(=O)O)cc2)nc(C)n1 (stereo not shown)  1.17%
62. COc1ccc2c(c1)CCC1C2=NN(C(C)=O)C1c1ccc(F)cc1 (stereo not shown)  1.42%
63. COc1ccc(Br)cc1CNCc1c(C(=O)O)c(C)n(Cc2ccccc2)c1C  1.63%
64. O=C(O)C1CSC(c2ccc(OCc3ccccc3F)cc2)N1 (stereo not shown)  1.83%
65. O=C(COc1ccc(Br)cc1)Nc1ccc(S(=O)(=O)N2CCOCC2)cc1  1.86%
66. Cc1oc(-c2ccc(C(=O)NCCN(C)C)cc2)nc1CS(=O)c1ccccc1 (stereo not shown)  2.15%
67. COC(=O)c1cc(S(=O)(=O)NCc2ccc3c(c2)OCO3)cn1C  2.32%
68. CCN1CCN(Cc2ccccc2F)CC1  2.33%
69. Cc1n(CC(O)COC2CCCCC2)c2ccccc2[n+]1C (stereo not shown)  2.38%
70. CCCC(C)NC(=O)c1sc2ccccc2c1Cl (stereo not shown)  2.38%
71. COCCn1c(C)cc(C(=O)CSc2nnc3scc(-c4ccc(Cl)cc4)n23)c1C  2.46%
72. Cn1c2ccccc2c2nnc(SCCCC(=O)c3ccc4c(c3)OCCO4)nc21  2.62%
73. Cc1cc(O)nc(SCC(=O)NCc2ccc3c(c2)OCO3)n1  2.99%
74. O=C(NCCN1CCCCCC1)c1ccc2c(c1)ncn2C1CCCCC1  3.24%
75. CCOCCCNC(=O)CSc1nnc(C)c2c(C)n(-c3ccccc3)nc12  3.25%
76. CN(C)CCO/N=C(\c1ccccc1)c1ccncc1  3.25%
77. Cc1cc(C)c2nc3c(c(N)c2c1)CCN3C  3.47%
78. Cc1cccc(C(=O)N2CCC(Cc3ccccc3)CC2)c1  3.53%
79. CC(=O)N(C)c1ccc(NC(=O)COc2cc(C)c(Cl)c(C)c2)cc1  3.57%
80. CCCNC(=O)C1CCCN(c2nnc(N3CCCC3=O)s2)C1 (stereo not shown)  3.87%
81. O=C(Nc1ccccc1)C(CCO)Nc1ccccc1 (stereo not shown)  3.98%
82. Cc1cc(C(=O)Nc2cccc3ccccc23)c(C)o1  4.28%
83. Cc1ccc(NC(=O)Nc2cn(C)c(=O)c3ccccc23)nc1  4.44%
84. CC1CCCCN1CCn1cnc2c3cc(F)ccc3nc-2c1O (stereo not shown)  4.8%
85. CC(=O)c1cccc(-n2c(S)nnc2-c2ccc3ccccc3n2)c1  5.31%
86. CCOc1ccc(S(=O)(=O)n2nc(C)c(Cl)c2C)c2ccccc12  5.45%
87. O=C(/C=C/c1ccccc1)Nc1ccccc1C#Cc1ccccc1  5.68%
88. COc1ccc(N2C(=O)C3C(c4ccccc4C)OC4(C(=O)c5ccccc5C4=O)C3C2=O)cc1OC (stereo not shown)  5.73%
89. O=C(c1ccco1)N1CCN(C(=O)c2cccc3c2C(=O)N(Cc2cccnc2)C3)CC1  6.08%
90. CN(C)CCN(C)Cc1c(F)cccc1F  6.17%
91. c1nnc2c3c4c(sc3ncn12)CCCC4  7.66%
92. COc1ccc2nc(NC(=O)C3=C(C)C(=O)OC34CCCCCC4)sc2c1  7.67%
93. COc1ccc2oc(/C=C/N(C)C)c(C(=O)c3ccc(C)cc3)c2c1  8.67%
94. COc1cccc2c3c(c[n+](C)c12)sc1cccc(F)c13  11.2%
95. CC(=O)Nc1ccc(C2C(C#N)=C(N)Oc3[nH]nc(-c4ccc5ccccc5c4)c32)cc1 (stereo not shown)  12.3%
96. O=C(O)CCC(=O)N1N=C(c2ccc(Br)cc2)CC1c1ccc(Br)cc1 (stereo not shown)  15.8%
97. O=C(COc1ccc(-c2ccccc2)cc1)Nc1nccs1  16.1%
98. CC1CCN(S(=O)(=O)c2ccc3c(ccn3CC(=O)NCc3ccc4c(c3)OCO4)c2)CC1  29.8%
99. Cc1nc2c3ccccc3n(Cc3ccccc3)c2s1  43.9%
100. Cc1nnc2c(NCc3ccc4c(c3)OCO4)nc3ccc(C(=O)c4ccccc4)cc3n12  79.7%
